As a reminder, the IC50 is the point on the concentration scale where inhibition reaches its midpoint. One may read the EC50 as the concentration needed to bring the measured effect to its halfway point. Broadly, the Kd is the constant that tells how readily two partners part at equilibrium.

The target of assay [1] is T1, Skp1-F-box^Fbw7 complex (UniProt P63208 1-163). The assay is described as follows: competitive ELISA. (In general: In an ELISA, binding on a coated surface is turned into a signal by an enzyme label.)
Another assay addresses Skp1-F-box^Fbw2 complex (UniProt P63208 1-163). The assay is described as follows: competitive ELISA.
The target of a further assay is Fbw7 L288A. The assay is described as follows: ELISA.
The target of a further assay is Skp1 M36A. The assay is described as follows: ELISA.
A further assay deals with Skp1 P48A. The assay is described as follows: ELISA.
Another assay deals with Skp1 L116A. The assay is described as follows: ELISA.
For another assay, the target named is Fbw7 E287L. The assay is described as follows: ELISA.
For a further assay, the target named is Skp1 M30A. The assay is described as follows: ELISA.
In the next assay the target is Skp1 N108A. The assay is described as follows: ELISA.
The next assay deals with Fbw7 Y291R. The assay is described as follows: ELISA.
A further assay concerns the target Skp1 P46A. The assay is described as follows: ELISA.
The target in assay [2] is T1, Skp1-F-box^Fbw7 complex. The assay is described as follows: SPR. A general note: Surface plasmon resonance follows binding to a sensor surface in real time, without labels.
The target of the next assay is Skp1 Y109A. The assay is described as follows: ELISA.
The target of a further assay is Skp1 D111R. The assay is described as follows: ELISA.
For assay [3], the target named is T1, Skp1-F-box^Fbw7 complex. The assay is described as follows: competitive ELISA; WB.

Where only a bound is given, the exact number is not on record here.

B1: Ubv.Fw7.13 (designed binder)
chain: MAHHHHHHVTSLYKKAGDYKDDDDKMQIFVKTGSRTGITLEVEPSDTIENVKAKIQDKGGIPPDQQILLFSRKRLEDGRTLSDYNIQKESTLRLVLIFSGA
In turn, B1 had an IC50 with Skp1-F-box^Fbw7 complex [1] of 170 nM.

B2: Ubv.Fw7.9 (designed binder)
chain: MAHHHHHHVTSLYKKAGDYKDDDDKMQIFVKTGARTGITLEVEPSDTIENVKAKIQDKEGIPPDQQILIFSRKRLEDGRTLSDYNIQKESTLRLVMVFSKG
Regarding B2, the 50% inhibitory concentration (IC50) with Skp1-F-box^Fbw7 complex [1] was 110 nM.

B3: Ubv.Fw7.18 (designed binder)
chain: MAHHHHHHVTSLYKKAGDYKDDDDKMQIFVKTGARTAITLEVEPSDTIENVKAKIQDKEGIPPDQQRLIFSRKRLEDGRTLSDYNIQKESTLRLVLLFPGG
B3 returned a half-inhibitory concentration (IC50) in the assay with Skp1-F-box^Fbw7 complex [1] of 310 nM.

B4: Ubv.Fw7.11 (designed binder)
chain: MAHHHHHHVTSLYKKAGDYKDDDDKMQIFVKTGARTAITLEVEPSDTIENVKAKIQDKGGIPPDQQVLIFSKKRLEDGRTLSDYNIQKESTLRLVLIFRRG
In the assay with Skp1-F-box^Fbw7 complex [1], B4 returned a 50% inhibitory concentration (IC50) of 130 nM.

B5: Ubv.Fw7.10 (designed binder)
chain: MAHHHHHHVTSLYKKAGDYKDDDDKMQIFVKTGTRTGITLEVEPSDTIENVKAKIQDKEGIPPDQQVLLFSRKVLEDGRTLSDYNIQKESTLRLVWLLRRG
In the assay with Skp1-F-box^Fbw7 complex [1], B5 showed an IC50 of 120 nM.

B6: Ubv.Fw7.6 (designed binder)
chain: MAHHHHHHVTSLYKKAGDYKDDDDKMQIFVKTGARTGITLEVEPSDTIENVKAKIQDKEGIPPDQQILIFSRKRLEDGRTLSDYNIQKESTLRLVLIFPSG
B6 yielded a half-inhibitory concentration (IC50) in the assay with Skp1-F-box^Fbw7 complex [1] of 80 nM.

B7: Ubv.Fw7.5 (designed binder)
chain: MAHHHHHHVTSLYKKAGDYKDDDDKMQIFVKTGARTGITLEVEPSDTIENVKAKIQDKEGIPPDQQVLIFSRKRLEDGRTLSDYNIQKESTLRLVLVFGRR
On to B7, for which, in the assay with Skp1-F-box^Fbw2 complex, the half-maximal inhibitory concentration (IC50) was found to be 760 nM. This counts as sub-micromolar.

B8: Ubv.Fw7.15 (designed binder)
chain: MAHHHHHHVTSLYKKAGDYKDDDDKMQIFVKTGARTGITLEVEPSDTIENVKAKIQDKEGIPPDQQILIFSHMRLEDGRTLSDYNIQKESTLRLVLIFSGG
Consider B8, for which the IC50 in the assay with Skp1-F-box^Fbw7 complex [1] stood at 180 nM.

B9: Ubv.Fw7.17 (designed binder)
chain: MAHHHHHHVTSLYKKAGDYKDDDDKMQIFVKTGARTGITLEVEPSDTIENVKAKIQDKGGIPPDQQRLIFAGKRLEDGRTLSDYNIQKESSLRLVLIFRGG
Molecule B9 showed a half-inhibitory concentration (IC50) in the assay with Skp1-F-box^Fbw7 complex [1] of 210 nM.

B10: Ubv.Fw7.16 (designed binder)
chain: MAHHHHHHVTSLYKKAGDYKDDDDKMQIFVKTGARTGITLEVEPSDTIENVKAKIQDKGGIPPDQQILLFSRKPLEDGRTLSDYNIQKESTLRLVVVFRRG
B10: in the assay with Skp1-F-box^Fbw7 complex [1], the IC50 turned out to be 210 nM.

B11: Cul1 NTD (other)
chain: MGSSHHHHHHSSGRENLYFQGHMDYKDDDDKMSSTRSQNPHGLKQIGLDQIWDDLRAGIQQVYTRQSMAKSRYMELYTHVYNYCTSVHQSNQARGAGVPPSKSKKGQTPGGAQFVGLELYKRLKEFLKNYLTNLLKDGEDLMDESVLKFYTQQWEDYRFSSKVLNGICAYLNRHWVRRECDEGRKGIYEIYSLALVTWRDCLFRPLNKQVTNAVLKLIEKERNGETINTRLISGVVQSYVELGLNEDDAFAKGPTLTVYKESFESQFLADTERFYTRESTEFLQQNPVTEYMKKAEARLLEEQRRVQVYLHESTQDELARKCEQVLIEKHLEIFHTEFQNLLDADKNEDLGRMYNLVSRIQDGLGELKKLLETHIHNQGLAAIEKCGEAALNDPKMYDQTVEDVHKKYNALVMSAFNNDAGFVAALDKACGRFINNNAVTK
B11: the EC50 amounted to 8 nM in the assay with Fbw7 L288A; 11 nM with Skp1 M36A; 18 nM with Skp1 P48A; 7 nM with Skp1 L116A; 18 nM in the assay with Fbw7 E287L; 9 nM with Skp1 M30A. In addition, the EC50 was 16 nM with Skp1 N108A, 16 nM with Fbw7 Y291R and 13 nM with Skp1 P46A.

B12: Cul1 N-terminal domain (NTD) (other)
chain: MGSSHHHHHHSSGRENLYFQGHMDYKDDDDKMSSTRSQNPHGLKQIGLDQIWDDLRAGIQQVYTRQSMAKSRYMELYTHVYNYCTSVHQSNQARGAGVPPSKSKKGQTPGGAQFVGLELYKRLKEFLKNYLTNLLKDGEDLMDESVLKFYTQQWEDYRFSSKVLNGICAYLNRHWVRRECDEGRKGIYEIYSLALVTWRDCLFRPLNKQVTNAVLKLIEKERNGETINTRLISGVVQSYVELGLNEDDAFAKGPTLTVYKESFESQFLADTERFYTRESTEFLQQNPVTEYMKKAEARLLEEQRRVQVYLHESTQDELARKCEQVLIEKHLEIFHTEFQNLLDADKNEDLGRMYNLVSRIQDGLGELKKLLETHIHNQGLAAIEKCGEAALNDPKMYDQTVEDVHKKYNALVMSAFNNDAGFVAALDKACGRFINNNAVTK
B12 returned a Kd with Skp1-F-box^Fbw7 complex [2] of 4.4 pM.

B13: Ubv.Fw7.7 (designed binder)
chain: MAHHHHHHVTSLYKKAGDYKDDDDKMQIFVKTGARTGITLEVEPSDTIENVKAKIQDKEGIPPDQQRLIFAGRRLEDGRTLSDYNIQKESTLRLVYVFRRG
The molecule B13 registered an IC50 with Skp1-F-box^Fbw7 complex [1] of 110 nM.

B14: Ubv.Fw7.14 (designed binder)
chain: MAHHHHHHVTSLYKKAGDYKDDDDKMQIFVKTGARTAITLEVEPSDTIENVKAKIQDKDGIPPDQQVLLFRRKKLEDGRTLSDYNIQKESTLRLLWIVRRG
Molecule B14 had a 50% inhibitory concentration (IC50) with Skp1-F-box^Fbw7 complex [1] of 170 nM.

B15: Ubv.Fw7.1 (designed binder)
chain: MAHHHHHHVTSLYKKAGDYKDDDDKMQIFVKTGARTAITLEVEPSDTIENVKAKIQDKEGIPPDQQILIFSRKLLEDGRTLSDYNIHRESTLRLVLIFRGNES
As to B15, the concentration giving a half-maximal response (EC50) came out at 110 nM in the assay with Fbw7 L288A; 13 nM in the assay with Skp1 M36A; 1.1 nM with Skp1 P48A; 13 nM with Skp1 Y109A; 19 nM with Skp1 L116A; 670 nM with Skp1 D111R. Moreover, the 50% effective concentration (EC50) with Fbw7 E287L is 1.7 nM; with Skp1 M30A, 3 nM; with Fbw7 Y291R it was 35 nM; in the assay with Skp1 P46A, 12 nM. For the same molecule, in the assay with Skp1-F-box^Fbw7 complex [3], the 50% inhibitory concentration (IC50) is greater than 5 µM.
